Screen size: about 310,000 compounds; about 14,000 (4.5%) showed an effect of 50% or more. The effect is printed as a negative number. Some of the results follow.
What follows are compounds tested against human ether-à-go-go-related gene (hERG) potassium channel (human, UniProt Q12809) (assay: primary screen, population patch clamp on CHO cells stably expressing hERG).
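Further: peak tail current of the secondary pulse compared with the same well before compound.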

Sequence of human ether-à-go-go-related gene (hERG) potassium channel (Q12809 whole entry, looked up): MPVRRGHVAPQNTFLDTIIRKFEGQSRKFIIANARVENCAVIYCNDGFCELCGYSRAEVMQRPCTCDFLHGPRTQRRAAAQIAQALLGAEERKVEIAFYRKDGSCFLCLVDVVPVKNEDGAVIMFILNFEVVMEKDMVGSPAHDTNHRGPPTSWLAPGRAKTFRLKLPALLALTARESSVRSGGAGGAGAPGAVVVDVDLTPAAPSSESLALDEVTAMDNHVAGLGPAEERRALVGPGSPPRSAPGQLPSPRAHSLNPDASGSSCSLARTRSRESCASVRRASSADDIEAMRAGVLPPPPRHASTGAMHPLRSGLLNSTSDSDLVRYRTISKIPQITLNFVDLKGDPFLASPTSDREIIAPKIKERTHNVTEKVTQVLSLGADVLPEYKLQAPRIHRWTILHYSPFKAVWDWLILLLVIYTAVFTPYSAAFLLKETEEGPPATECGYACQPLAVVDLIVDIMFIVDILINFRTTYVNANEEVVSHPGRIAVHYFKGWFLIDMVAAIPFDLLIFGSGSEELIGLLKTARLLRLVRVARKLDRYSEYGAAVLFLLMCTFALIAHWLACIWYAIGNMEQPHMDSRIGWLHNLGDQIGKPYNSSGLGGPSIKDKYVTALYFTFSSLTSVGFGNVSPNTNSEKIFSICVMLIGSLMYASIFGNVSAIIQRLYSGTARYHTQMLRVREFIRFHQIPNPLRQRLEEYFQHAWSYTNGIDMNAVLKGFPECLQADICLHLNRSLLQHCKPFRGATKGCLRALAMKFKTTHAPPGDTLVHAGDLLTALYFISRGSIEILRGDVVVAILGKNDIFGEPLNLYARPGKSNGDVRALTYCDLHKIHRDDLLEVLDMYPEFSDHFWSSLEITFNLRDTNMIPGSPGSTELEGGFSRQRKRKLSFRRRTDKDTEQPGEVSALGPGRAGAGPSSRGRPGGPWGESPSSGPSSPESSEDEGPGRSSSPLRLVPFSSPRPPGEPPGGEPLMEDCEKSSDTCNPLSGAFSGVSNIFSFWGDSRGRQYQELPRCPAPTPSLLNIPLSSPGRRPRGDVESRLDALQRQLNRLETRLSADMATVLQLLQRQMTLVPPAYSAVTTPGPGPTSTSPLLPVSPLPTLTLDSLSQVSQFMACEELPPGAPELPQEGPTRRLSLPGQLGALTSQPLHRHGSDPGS

SMILES	hERG current change (%, negative = inhibition) at 10uM
COCCCNc1nc2nonc2nc1N1CCC(C(C)N2CCOCC2)CC1 (stereo not shown)	23.5%
Nc1cc(-c2nn[nH]n2)ccc1F	11.6%
CC(C)=C1SC(N2CCN(c3ccc(C)c(Cl)c3)CC2)=NC1=O	3.91%
CCOC(=O)N1CCN(C(=O)c2ccc3nc(N4CCC(C)CC4)sc3c2)CC1	-12.2%
O=C(NNC(=O)c1ccccc1C(F)(F)F)c1csc(N2CCOCC2)n1	20.7%
CS(=O)(=O)NCc1nnc(SCc2ccc(C(F)(F)F)cc2)o1	-22.7%
COc1cccc(C(=O)OC2CCN(C)CC2)c1.Cl	4.78%
Cc1ccc(NC(=O)C(C)N2CCCC2)cc1Cl.Cl (stereo not shown)	-27.7%
Cc1ccc(C)c(S(=O)(=O)N2CCN(C(=O)c3ccc4ccccc4n3)CC2)c1	-26%
CC1Sc2n(c3ccccc3[n+]2C)N=C1c1ccccc1.[Br-] (stereo not shown)	-49.6%
Cc1sc2nc(C)n(/N=C/c3ccccc3)c(=O)c2c1C	-14.1%
Cn1c(=O)[nH]c(=O)c2c1nc1n2CCCN1Cc1ccccc1	1.21%
COc1cc2c(cc1NC(=O)C(C)Sc1cccc[n+]1[O-])oc1ccccc12 (stereo not shown)	-38.5%
COc1cc(/C=N/NC(=S)NCCN2CCOCC2)cc(OC)c1O	12.7%
Cc1nccn1CC(=O)c1ccc(O)c(O)c1.Cl	12.3%
CCN(CC)S(=O)(=O)c1cccc(C(=O)N/N=C/c2ccccn2)c1	12.8%
COc1cc(NC(=O)C2CCCN(c3ncnc4c3nc3n4CCCCC3)C2)cc(OC)c1OC (stereo not shown)	-6.46%
CCC(CO)NC(=O)c1cccc(S(=O)(=O)N2c3ccccc3CC2C)c1 (stereo not shown)	2.65%
CCOc1ccc(C(=O)C[n+]2ccc(C(=O)NCc3ccccc3)cc2)cc1.[Br-]	-36%
Cc1ccc(C(=O)N/C(=C/c2ccc(Cl)cc2)C(=O)Nc2cccc(C(=O)O)c2)cc1	4.27%
OCCC1CN(Cc2cccn2-c2nccs2)CCN1Cc1ccccc1 (stereo not shown)	-69.3%
COc1ccc(F)c(CN(C)CC2CCCN(CCc3ccc(F)cc3)C2)c1 (stereo not shown)	-73.4%

SMILES	hERG current change (%, negative = inhibition) at 10uM
C=CCNC(=O)NC(=O)COC(=O)C(C)Oc1ccc(Cl)cc1Cl (stereo not shown)	20.6%
O=C(CCCCCNc1nc(=S)[nH]c2ccccc12)N1CCN(c2ccccn2)CC1	-16.3%
O=C(c1ccc(Br)o1)N1CCN(CCOc2ccccc2)CC1	-54.1%
N#C/C(=C/c1ccc(Br)o1)C(N)=S	5.99%
CC(SC1=NCCS1)C(=O)Nc1nnc(-c2ccc(F)cc2)s1 (stereo not shown)	2.34%
CCC(C)n1c(=O)c2sccc2n2c(CCCC(=O)N3CCC(C(N)=O)CC3)nnc12 (stereo not shown)	5.89%
O=C(Nc1ccc2[nH]ncc2c1)c1ccccc1	9.74%
COc1ccc(N2C(=S)NC(C)(C)CC2(C)c2ccc(OC(C)=O)cc2OC(C)=O)cc1 (stereo not shown)	6.26%
CN1c2cccc3cccc(c23)N(C)C1(C)C	-7.83%
CCOC(=O)C1CCN(C(=O)CCS(=O)(=O)c2ccc3c(c2)n(C)c(=O)c(=O)n3C)CC1	10.3%
Cc1cc(NC(=O)c2cc(F)c(F)cc2Cl)no1	15%
CCOC(=O)C1(Cc2cccc(Cl)c2)CCCN(C(=O)c2cc(C)n(C)n2)C1 (stereo not shown)	-10.6%
COc1ccc(OCCCC(=O)OCC(=O)Nc2sccc2C(N)=O)cc1	-1.66%
CCOC(=O)c1[nH]c(C)c(C(=O)OCC(=O)N(CC)C2CCS(=O)(=O)C2)c1C (stereo not shown)	-8.58%
CC1CCCC(NC(=O)c2ccc3c(=O)n(CC4CCCO4)c(=O)[nH]c3c2)C1C (stereo not shown)	-1.57%
Cc1cc2cc(CN(Cc3ccc4c(c3)OCO4)Cc3nnnn3C3CCCC3)c(=O)[nH]c2cc1C	-5.19%
CC1CN(CCc2ccccc2)C(C)C/C1=N/O (stereo not shown)	4.75%
O=C(c1cccs1)N(C(=O)c1cccs1)c1ccc(Br)cn1	-16%
COc1cccc(-n2cnc3c(sc4nc(N5CCOCC5)c5c(c43)CCCC5)c2=O)c1	5.92%
CCOC(=O)c1sc2nc(C)c([N+](=O)[O-])c(COC)c2c1N	-3.52%
O=C(c1cccc(S(=O)(=O)N2CCN(c3ccc(F)cc3)CC2)c1)N1CCCCCCC1	-45.2%
CCc1nc2oc3cc(OC)ccc3c(=O)c2c(=O)n1Cc1ccco1	-48.4%

SMILES	hERG current change (%, negative = inhibition) at 10uM
C/C(Nc1ccccc1C(F)(F)F)=C1/CCOC1=O	0.778%
COc1ccc(C(=O)Nc2cccc(-c3ccc(N4CCOCC4)nn3)c2)cc1	-37.8%
CCOc1ccc(S(=O)(=O)Nc2ccc(F)cc2)c(C)c1C	2.56%
Cc1c(Cc2ccccc2)c(=O)oc2cc(OCC(=O)NCC3CCC(C(=O)O)CC3)ccc12 (stereo not shown)	18.2%
COCCCNC(=S)N(CCO)Cc1cc2cc3c(cc2[nH]c1=O)OCO3	0.0736%
Cc1ccc(C(=O)Nc2c(C)n(C)n(-c3ccccc3)c2=O)cc1	18.5%
Cc1ccc(CNC(=O)C2CCC(=O)N2Cc2ccccc2Cl)cc1 (stereo not shown)	2.52%
Cc1ccnc(NC(=O)COc2ccc(Cl)cc2)n1	10.1%
CCC(C)c1ccccc1OCCCCN1CCCC1 (stereo not shown)	-48.8%
CC12CCC(c3c(C(=O)Nc4nccs4)nn(-c4ccccc4)c31)C2(C)C (stereo not shown)	-2.19%
O=C1[C@@H]2[C@H](Cc3ccc(O)cc3)N[C@]3(C(=O)Nc4ccccc43)[C@@H]2C(=O)N1c1ccc(F)cc1	-7.41%
NC(=O)C1CCN(CCS(=O)(=O)c2ccc(Cl)cc2)CC1	5.76%
CC1(C)Cc2cccc(OCC(=O)N3CCN(c4ccccc4F)CC3)c2O1	-22.4%
COc1ccc(C(=O)OC(C)CN2CCN(C)CC2)cc1OC.Cl (stereo not shown)	17%
COc1nc(OCCNC(C)=O)nc(N(C)C)n1	0.00028%
COc1ccc(Cc2nnc(SCc3c(C)noc3C)n2C2CCCCC2)cc1OC	-10.7%
O=C(Nc1ccccc1C(=O)N1CCOCC1)c1ccc(F)cc1	19.9%
O=C(N/N=C/C(Br)=C\c1ccccc1)c1n[nH]c2c1CCC2	-18.1%
Cc1ccc(S(=O)(=O)C2(C(=O)Nc3cccc(F)c3)CC2)cc1	0.141%
O=C(c1ccc(N2CCC3(CC2)OCCO3)c([N+](=O)[O-])c1)N1CCOCC1	1.16%
CC1Cc2cc(S(=O)(=O)N3CCC(C(=O)N(C)Cc4ccccc4)CC3)ccc2N1C(=O)C1CC1 (stereo not shown)	2.78%
COc1cc(NC(=O)c2cccs2)ccc1NC(=O)c1cc2ccccc2o1	28.6%

SMILES	hERG current change (%, negative = inhibition) at 10uM
O=C1CCCc2ccccc2N1Cc1ccc(Cl)cc1	-19%
Cc1cc(C(F)(F)F)nn1CC(=O)N1CCCC1	-5.53%
COc1cccc2sc3ccc(C#Cc4ccc(N)cc4)cc3c(=O)c12	5.83%
O=C(NC(=O)c1ccccc1N1CCCCC1)Nc1ccc(Br)cc1	16.2%
Cn1c(O)c(C=NC2CCCCCC2)c(=O)[nH]c1=S	8.07%
O=C(c1cn(-c2ccccc2)nc1-c1cccnc1)N1CCCCC1	-13.7%
O=S(=O)(Nc1cccnc1)c1cccc(C(F)(F)F)c1	-2.26%
Cc1ccc(NC(=O)C2CCCN(C(=O)c3ccc(Cl)cc3)C2)cc1C (stereo not shown)	-19.6%
CCc1ccc(C(C)NC(=O)c2cc(C)oc2C)cc1 (stereo not shown)	-3.21%
O=C(NNC(=S)NC(=O)c1cccs1)c1cccnc1	22.6%
COC(=O)NC1CCC(CC2CCC(NC(=O)OC)CC2)CC1 (stereo not shown)	21.3%
CCOC(=O)C1(Cc2ccccc2)CCCN(C(=O)c2cnn(CC)c2)C1 (stereo not shown)	10.1%
O=C(NCc1ccc(F)cc1)c1cccnc1	9.37%
COC(=O)CN1C(=O)[C@H]2[C@@H](/C=C/c3ccccc3)N3C(=O)CN(CCO)C(=O)[C@@]3(Cc3ccccc3)[C@H]2C1=O	-2.36%
COc1cc(S(=O)(=O)n2ccc(C)n2)ccc1Cl	-3.62%
C=CCn1c(C)cc(C2=NNC(=NC(C)(C)C)SC2)c1C	-23.9%
COCCN(C(=O)COC(=O)/C=C/c1nc2ccccc2s1)c1c(N)n(Cc2ccccc2)c(=O)[nH]c1=O	9.55%
COc1ccc(C(=O)CSc2nnc(CN3CCCC3)n2-c2ccc(F)cc2)c(OC)c1	-23%
COC(=O)c1ccccc1NC(=O)CCc1ccccc1	-9.05%
O=C(NC1CC1)c1ccc(C2SCC(=O)N2Cc2ccccc2)cc1 (stereo not shown)	-11.7%
COc1ccc(C2C(C(C)=O)=C(O)C(=O)N2CCc2c[nH]c3ccccc23)cc1 (stereo not shown)	13.7%
O=C(Nc1cccc(S(=O)(=O)N2CCCCC2)c1)c1ccco1	-12.3%
